Source: US20260207762A1 (ANAVEON, published 2026)
One block for each binder: values may come before it.

Assays:
[1] = biological target: T1, IL-2R on NK cells and CD8 T cells of murine splenocytes (C57BL/6 mice) (mouse); assay: cell-based or functional assay
[2] = biological target: T1, IL-2R on NK cells and CD8 T cells of …; assay: cell-based or functional assay; remark: listed apart in the source

B1: Proleukin (aldesleukin) (ligand)
chain: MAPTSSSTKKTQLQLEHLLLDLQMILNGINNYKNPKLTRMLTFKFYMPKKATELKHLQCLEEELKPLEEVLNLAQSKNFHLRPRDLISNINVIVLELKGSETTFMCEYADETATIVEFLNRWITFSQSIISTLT
EC50 CD8 cells (nM), pSTAT5+ cells in mouse splenocytes [1]: 4.1 nM
EC50 pSTAT5 on CD8 cells (nM), mouse splenocytes [2]: 11.9 nM
EC50 pSTAT5 on NK cells (nM), mouse splenocytes [2]: 2.51 nM

B4: FUE433 (other)
heavy: EVQLVQSGAEVKKPGESLKISCKGSGYSFTNFYIHWVRQAPGQRLEWMGSIYPNYGDTAYNQKFKDRFVFSLDTSVSTAYLQISSLKAEDTAVYYCARGYSYAMDYWGQGTTVTVSSASTKGPSVFPLAPSSKSTSGGTAALGCLVKDYFPEPVTVSWNSGALTSGVHTFPAVLQSSGLYSLSSVVTVPSSSLGTQTYICNVNHKPSNTKVDKRV[not shown - human IgG1 Fc with changes]
light: DIQMTQSPSSVSASVGDRVTITCSASQGISGGGGNFHLRPRDLISNINVIVLELKGSETTFMCEYADETATIVEFLNRWITFSQSIISTLTPTSSSTKKTQLQLEHLLLDLQMILNGINNYKNPKLTRMLTFKFYMPKKATELKHLQCLEEELKPLEEVLNLAQSKGGGGDLNWYQQKPGKAPKLLIYHTSSLHSGVPSRFSGSGSGTDFTLTISSLQPEDFATYYCQYYSKDLLTFGGGTKLEIKRTVAAPSVFIFPPSDEQLKSGTASVVCLLNNFYPREAKVQWKVDNALQSGNSQESVTEQDSKDSTYSLSSTLTLSKADYEKHKVYACEVTHQGLSSPVTKSFNRGEC
EC50 CD8 cells (nM), pSTAT5+ cells in mouse splenocytes [1]: 15.7 nM
EC50 NK cells (nM), pSTAT5+ cells in mouse splenocytes [1]: 1.2 nM

B5: GLK754 (other)
heavy: EVQLVQSGAEVKKPGESLKISCKGSGYSFTNFYIHWVRQAPGQRLEWMGSIYPNYGDTAYNQKFKDRFVFSLDTSVSTAYLQISSLKAEDTAVYYCARGYSYAMDYWGQGTTVTVSSASTKGPSVFPLAPSSKSTSGGTAALGCLVKDYFPEPVTVSWNSGALTSGVHTFPAVLQSSGLYSLSSVVTVPSSSLGTQTYICNVNHKPSNTKVDKRV[not shown - human IgG1 Fc with changes]
light: DIQMTQSPSSVSASVGDRVTITCSASQGISGGGGGSGGGGSGGGNFHLRPRDLISNINVIVLELKGSETTFMCEYADETATIVEFLNRWITFSQSIISTLTPTSSSTKKTQLQLEHLLLDLQMILNGINNYKNPKLTRMLTFKFYMPKKATELKHLQCLEEELKPLEEVLNLAQSKGGGGSGGGGSGGGGDLNWYQQKPGKAPKLLIYHTSSLHSGVPSRFSGSGSGTDFTLTISSLQPEDFATYYCQYYSKDLLTFGGGTKLEIKRTVAAPSVFIFPPSDEQLKSGTASVVCLLNNFYPREAKVQWKVDNALQSGNSQESVTEQDSKDSTYSLSSTLTLSKADYEKHKVYACEVTHQGLSSPVTKSFNRGEC
EC50 CD8 cells (nM), pSTAT5+ cells in mouse splenocytes [1]: 70.5 nM
EC50 NK cells (nM), pSTAT5+ cells in mouse splenocytes [1]: 2.5 nM

Results, then the binder that gave them:

EC50 CD8 cells (nM), pSTAT5+ cells in mouse splenocytes [1]: 18.6 nM
EC50 NK cells (nM), pSTAT5+ cells in mouse splenocytes [1]: 1.3 nM
B2: DXM339 (other)
heavy: EVQLVQSGAEVKKPGESLKISCKGSGYSFTNFYIHWVRQAPGQRLEWMGSIYPNYGDTAYNQKFKDRFVFSLDTSVSTAYLQISSLKAEDTAVYYCARGYSYAMDYWGQGTTVTVSSASTKGPSVFPLAPSSKSTSGGTAALGCLVKDYFPEPVTVSWNSGALTSGVHTFPAVLQSSGLYSLSSVVTVPSSSLGTQTYICNVNHKPSNTKVDKRV[not shown - human IgG1 Fc with changes]
light: DIQMTQSPSSVSASVGDRVTITCSASQGISGGGNFHLRPRDLISNINVIVLELKGSETTFMCEYADETATIVEFLNRWITFSQSIISTLTPTSSSTKKTQLQLEHLLLDLQMILNGINNYKNPKLTRMLTFKFYMPKKATELKHLQCLEEELKPLEEVLNLAQSKGGGDLNWYQQKPGKAPKLLIYHTSSLHSGVPSRFSGSGSGTDFTLTISSLQPEDFATYYCQYYSKDLLTFGGGTKLEIKRTVAAPSVFIFPPSDEQLKSGTASVVCLLNNFYPREAKVQWKVDNALQSGNSQESVTEQDSKDSTYSLSSTLTLSKADYEKHKVYACEVTHQGLSSPVTKSFNRGEC

EC50 CD8 cells (nM), pSTAT5+ cells in mouse splenocytes [1]: 25.4 nM
EC50 NK cells (nM), pSTAT5+ cells in mouse splenocytes [1]: 1.8 nM
B3: LQM346 (other)
heavy: EVQLVQSGAEVKKPGESLKISCKGSGYSFTNFYIHWVRQAPGQRLEWMGSIYPNYGDTAYNQKFKDRFVFSLDTSVSTAYLQISSLKAEDTAVYYCARGYSYAMDYWGQGTTVTVSSASTKGPSVFPLAPSSKSTSGGTAALGCLVKDYFPEPVTVSWNSGALTSGVHTFPAVLQSSGLYSLSSVVTVPSSSLGTQTYICNVNHKPSNTKVDKRV[not shown - human IgG1 Fc with changes]
light: DIQMTQSPSSVSASVGDRVTITCSASQGISGGGGGSGNFHLRPRDLISNINVIVLELKGSETTFMCEYADETATIVEFLNRWITFSQSIISTLTPTSSSTKKTQLQLEHLLLDLQMILNGINNYKNPKLTRMLTFKFYMPKKATELKHLQCLEEELKPLEEVLNLAQSKGGGGSGGDLNWYQQKPGKAPKLLIYHTSSLHSGVPSRFSGSGSGTDFTLTISSLQPEDFATYYCQYYSKDLLTFGGGTKLEIKRTVAAPSVFIFPPSDEQLKSGTASVVCLLNNFYPREAKVQWKVDNALQSGNSQESVTEQDSKDSTYSLSSTLTLSKADYEKHKVYACEVTHQGLSSPVTKSFNRGEC
